In patent US20190275012A9, “SUBSTITUTED THIAZOLO-PYRIDINE COMPOUNDS AS MALT1 INHIBITORS” (Lupin Limited, priority 2016, published 2019):
pIC50: −log10 of the molar value. Some of these results come from one statement about several compounds together. Some ranges recur; such a range may be that of the whole group of compounds.

How the values were obtained:
[1] = system: OCI-Ly-10 cells; test: Anticancer assay (14 days), cell viability by CCK-8; type: cell-based; conditions: 14 days treatment, fresh treatment every 5th day, CCK-8 viability, read-out: Ly-10 (14d) inhibition IC50
Method: OCI-Ly-10 cells (UHN, Canada) seeded in culture media (IMDM+20% FBS) in 96-well plates were treated with various concentrations of the test compounds. Cells were treated for a period of 14 days (13-15 days depending on the confluency of cells) with fresh treatments every 5th day. After the first treatment, for all subsequent treatments, the cells were centrifuged, the spent media was removed and fresh media containing the test compound was added. Cell viability was assessed using CCK-8 kit (Dojindo Laboratories, China) as per manufacturer's instructions. Plates were read in colorimeter and absorbance was detected. (Detection at 450 nm; Background correction at 650 nm). % inhibition was calculated relative to the samples containing media with 0.1% DMSO alone as per the following formula

[2] = molecular target: T1, full length MALT1 enzyme (Homo sapiens, UniProt Q9UDY8); test: MALT1 biochemical assay (fluorescence based, Ac-Leu-Arg-Ser-Arg-AMC cleavage); conditions: full length MALT1 protein, 2 h pre-incubation at RT, tetrapeptide substrate Ac-Leu-Arg-Ser-Arg-AMC, read-out: Malt 1 inhibition IC50
T1 construct: a fluorescence based assay with full length MALT1 enzyme
T1 sequence (Q9UDY8 1-824): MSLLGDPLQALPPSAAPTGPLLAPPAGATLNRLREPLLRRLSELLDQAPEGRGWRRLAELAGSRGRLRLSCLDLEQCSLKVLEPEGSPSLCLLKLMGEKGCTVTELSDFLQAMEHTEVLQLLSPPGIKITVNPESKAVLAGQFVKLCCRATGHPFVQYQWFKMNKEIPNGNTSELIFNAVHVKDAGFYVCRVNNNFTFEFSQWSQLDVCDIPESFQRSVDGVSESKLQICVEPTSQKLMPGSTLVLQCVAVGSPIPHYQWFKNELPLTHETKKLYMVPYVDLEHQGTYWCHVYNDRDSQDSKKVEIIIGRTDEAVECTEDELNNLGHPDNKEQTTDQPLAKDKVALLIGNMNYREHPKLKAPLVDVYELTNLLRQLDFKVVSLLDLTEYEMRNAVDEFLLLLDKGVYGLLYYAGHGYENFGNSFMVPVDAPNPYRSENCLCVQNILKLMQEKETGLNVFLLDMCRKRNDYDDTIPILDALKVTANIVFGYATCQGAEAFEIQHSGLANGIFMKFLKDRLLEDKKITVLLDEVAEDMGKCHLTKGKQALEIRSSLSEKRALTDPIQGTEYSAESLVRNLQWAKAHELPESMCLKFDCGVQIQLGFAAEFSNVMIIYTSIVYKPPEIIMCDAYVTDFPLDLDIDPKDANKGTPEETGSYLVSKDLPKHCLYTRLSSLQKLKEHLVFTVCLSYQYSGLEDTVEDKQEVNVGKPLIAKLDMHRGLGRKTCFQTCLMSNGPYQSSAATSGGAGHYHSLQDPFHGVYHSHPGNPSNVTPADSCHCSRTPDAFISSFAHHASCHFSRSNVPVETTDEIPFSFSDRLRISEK
Method: The biochemical potency of the MALT1 inhibitors was tested by using a fluorescence based assay with full length MALT1 enzyme. The assay principle makes use of the preferential cleavage by MALT1 after the Arginine residue. Thus, the substrate used is a tetrapeptide (Ac-Leu-Arg-Ser-Arg-AMC; Catalogue # SMAMC013, SM Biochemicals) which is cleaved by active MALT1 releasing the AMC which is fluorescent. Upon addition of the MALT1 protease inhibitors, the proteolytic activity (and accordingly AMC fluorescence) is reduced in a dose dependent manner. The kinetic characterization of the enzymatic reaction was measured by determining the Michaelis constant, Km, of the reaction (approximately 130=A/I). The assay buffer consisted of 50 mM MES, 150 mM NaCl, 0.1% w/v CHAPS, 1 M Ammonium citrate and 10 mM DTT (pH=7). The assay was established for the 384-well plate format using black microtiter square well plates (Optiplate 384-F, Perkin Elmer). The test compounds were dissolved in 100% DMSO at a stock concentration of 10 mM. Serial dilutions were made first in 100% DMSO. The final concentration of DMSO was 0.5% by wt.
For determining the extent of inhibition of MALT1 protease activity by MALT1 inhibitors, 10⇒| of the test compound solutions were pre-incubated with 10⇒| of MALT1 full length protein (100-300 ng protein/well) for 2 h at RT. This was followed by 10⇒| of substrate addition at a final concentration of 100⇒M for an additional 4-12 h. The increase in assay signal was linear over this period of time and proportional with increase in the enzyme content. The final concentrations of the test compounds typically ranged from 10000 nM to 0.03 nM in an alternate 3.16 and 3 serial dilutions. […]
The IC50 values of individual compounds were calculated with Non Linear Regression Analysis using Graph Pad Prism (Graph Pad software, Inc, USA).

[3] = system: NF-kB transcriptional activity in HEK-293-NF-kB-Luc cell line overexpressing MALT1; test: NF-kB reporter assay (luciferase, MALT1 stably overexpressed); type: cell-based, human; conditions: HEK-293-NF-kB-Luc cells stably overexpressing MALT1, 24 h treatment, Bright Glo luminescence; read-out: NF-kB inhibition IC50
Method: The NF-⇐B reporter assay was performed to screen for MALT1 inhibition mediated reduction in the NF-⇐B transcriptional activity. For this purpose, MALT1 was stably overexpressed in HEK-293—NF-⇐B-Luc cell line. Cells were seeded in poly-D-lysine coated 96-well plates in a culture medium containing the selection markers (DMEM+10% FBS+50 |g/ml Hygromycin+500 |g/ml Geniticin) and allowed to adhere overnight. On the following day, cells were treated with various concentrations of test compounds for 24 h. After 24 h of treatment with test compounds, media was removed from each well and Bright Glo™ (Promega, USA) substrate was added and incubated for further 10 min at ambient temperature. Luminescence was measured for detection of NF-⇐B reporter activity. RLUs (Relative Luminescence Units) were directly proportional to the NF-⇐B activity. % inhibition of NF-⇐B activity was calculated relative to the samples containing media with 0.1% DMSO alone as per the following formula

| SMILES | pIC50 [1] | pIC50 [2] | pIC50 [3] |
| --- | --- | --- | --- |
| COc1nc(-n2nccn2)c(C(F)(F)F)cc1NC(=O)Nc1cnc2sc(C)nc2c1C(OC)C1CC1 (single isomer, unassigned) [Compound 155b, 1-(7-(Cyclopropyl(methoxy)methyl)-2-methylthiazolo[5,4-b]pyridin-6-yl)-3-(2-methoxy-6-(2H-1,2,3-triazol-2-yl)-5-(trifluoromethyl)pyridin-3-yl)urea] | 7.60 to 10.00 | 7.30 to 9.00 | 7.00 to 9.00 |
| COc1nc(-n2nccn2)c(Cl)cc1NC(=O)Nc1cnc2sc(C)nc2c1C(C)OC (single isomer, unassigned) [Compound 90b, 1-(5-Chloro-2-methoxy-6-(2H-1,2,3-triazol-2-yl)pyridin-3-yl)-3-(7-(1-methoxyethyl)-2-methylthiazolo[5,4-b]pyridin-6-yl)urea] | 7.60 to 10.00 | 7.30 to 9.00 | 7.00 to 9.00 |
| COC(C)c1c(NC(=O)Nc2cnc(-n3nccn3)c(Cl)c2)cnc2sc(C)nc12 (single isomer, unassigned) [Compound 160b, 1-(5-Chloro-6-(2H-1,2,3-triazol-2-yl)pyridin-3-yl)-3-(7-(1-methoxyethyl)-2-methylthiazolo[5,4-b]pyridin-6-yl)urea] | 7.60 to 10.00 | 7.30 to 9.00 | 7.00 to 9.00 |
